{"source": "paper PMC4448209", "about": "(Journal of Neuroinflammation, 2015)", "key": {"[1]": {"system": "IFNγ-secreting splenocytes", "experiment": "IFNγ ELISPOT, splenocytes of immunized C57BL/6 mice", "type": "in vivo, mouse", "conditions": "C57BL/6 mice immunized with Aβ/CpG/IFA; day 14; restimulated with Aβ1-42 (40 μg/ml) or nonamers (10 μg/ml)"}, "[2]": {"system": "IFNγ-secreting splenocytes"}}}
{"substance": "Aβ1-42: Human Aβ1-42 peptide", "values": [{"measurement": "IFNγ secretion by splenocytes", "setting": "[1]", "result": "splenocytes secreted IFNγ in response to full-length Aβ1-42"}, {"measurement": "IFNγ-secreting T cell response", "setting": "[2]; HLA-A2.1/HLA-DR1 mice immunized with Aβ1-42/CpG/IFA, day 14, ELISPOT, Aβ1-42 40 μg/ml or 15-mers 10 μg/ml", "result": "only CD4^+ T cells that secrete IFNγ responded to Aβ1-42 immunization and recognized an immunodominant epitope located between amino acids 1–18"}]}
{"substance": "GLMVGGVVI [Aβ33-41]", "values": [{"measurement": "IFNγ-secreting splenocytes", "setting": "[2]; HLA-A2.1/HLA-DR1 mice immunized sc with Aβ16-24 or Aβ33-41 in CpG/Padre/IFA, restimulated 18 h with the named peptide 10 μg/ml", "result": "weak or null"}]}
